# PubChem BioAssay AID686979 (National Center for Advancing Translational Sciences (NCATS), 2013)
# In all, about 420,000 compounds went through this assay and about 50,000 (12%) were called active. The inconclusive results got no clear call from the source; some entries with a clear call stand among them for comparison. Calls come from the whole dose curve; as a rule, active = well fitted inhibition curve with a large enough effect; inconclusive = small, poorly fitted or top-dose-only effect; inactive = flat fitted curve, though single readings scatter. Potencies of inconclusive entries are left out as doubtful fits.
# Assay: qHTS for Inhibitors of human tyrosyl-DNA phosphodiesterase 1 (TDP1): qHTS in cells in presence of CPT; note: nearly all actives have a fitted effect of over 55% in size
# Conditions: chicken DT40 Tdp1-/-;hTDP1 cells + 20 nM CPT, ATP luminescence, 48 h; activity change, negative = growth inhibition: at 46.2 µM (top of the series)
# Method in brief: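 Chicken DT40 Tdp1-/- cells complemented with human TDP1, 400 cells/well, exposed to compounds plus 20 nM camptothecin for at least 48 h at 37 C; viability read as ATP content by CellTiter-Glo luminescence.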
# % is set by controls: 0 for no effect and ±100 for the full control effect; potency is the fitted concentration of half-maximal effect; tags give direction and shape of the fitted curve.
SMILES,Potency,"activity change, negative = growth inhibition"
Cc1ccc2nc(Nc3cccc(C(F)(F)F)c3)c3nnnn3c2c1,"inconclusive [inhibitor, single point]",–
CN1CCN(/N=C/c2ccc(-c3ccccc3)cc2)CC1,"inconclusive [inhibitor, single point]",–
CC(=O)c1ccc(NC(=O)CN2CCCC2)cc1,–,inactive: 3.81%
CCCC1=C(C(=O)OCC)C(c2ccc(F)cc2)n2ncnc2N1 (centres undefined),"inconclusive [inhibitor, single point]",–
O=C(COC(=O)/C=C/c1cccc([N+](=O)[O-])c1)Nc1cccnc1Cl,–,inactive: 2.47%
Cc1cccc(NC(=O)Cn2c(O)c(N=NC(N)=S)c3ccccc32)c1,active: 23.1 µM,–
O=[N+]([O-])c1ccc(/C=N/Nc2ncc(-c3ccccc3)cn2)cc1,–,inactive: 3.6%
COc1cc(OC)cc(-c2nnc(SCC(=O)N3CCCCC3)o2)c1,"inconclusive [inhibitor, single point]",–
CC(=O)Nc1ccc(S(=O)(=O)NCC(=O)OCC(=O)NNC(=O)c2ccccc2)cc1,–,inactive: -0.191%
Fc1ccc(-[n+]2nc(Nc3ccccc3)sc2-c2ccc(OCc3ccccc3)cc2)cc1,active: 16.4 µM,–
CN(C)S(=O)(=O)c1cccc(C(=O)OCC(=O)Nc2sccc2C(N)=O)c1,active: 14.6 µM,–
O=[N+]([O-])c1ccc(N/N=C2/CCCCC2c2ccccn2)c([N+](=O)[O-])c1 (centres undefined),"inconclusive [inhibitor, single point]",–
CCC(=O)N(Cc1ccccc1)c1ccccn1,–,inactive: -1.38%
CCOc1ccc(NC(=O)CCNS(=O)(=O)c2ccc3c(c2)CC(C)N3C(C)=O)cc1 (centres undefined),active: 14.6 µM,–
COc1ccc(CN(CCC(c2ccccc2)c2ccco2)C(=O)c2ccco2)cc1 (centres undefined),"inconclusive [inhibitor, single point]",–
N#C/C(=C\c1cccn1S(=O)(=O)c1cccc([N+](=O)[O-])c1)S(=O)(=O)c1ccc(F)cc1,"inconclusive [inhibitor, single point]",–
Cc1cc2ncn(-c3ncnc4scc(-c5ccccc5)c34)c2cc1C,"inconclusive [inhibitor, single point]",–
COc1ccc(CCNC(=O)c2ccc3[nH]c(C)c(C)c3c2)cc1OC,"inconclusive [inhibitor, single point]",–
C=CCOC(=O)Nc1nc(CCNC(=O)OC(C)(C)C)c(C(=O)O)s1,–,inactive: 12.4%
O=S(=O)(NCC(c1ccco1)N1CCN(c2ccc(F)cc2)CC1)c1cc(F)ccc1F (centres undefined),active: 18.4 µM,–
CCc1nc2c(OCc3ccc(Cl)cc3Cl)cccn2c1N(C)C(=O)CC(C)C,"inconclusive [inhibitor, single point]",–
CCCCN(CC)CCNC(=O)CN1C(=O)COc2ccc(S(=O)(=O)N3CCOCC3)cc21,–,inactive: 8.94%
CCOC(=O)C1(Cc2cccc(F)c2)CCN(C(=O)Cn2cnnn2)CC1,–,inactive: -0.466%
CCCN1CCc2c(sc(NC(=S)NC(=O)c3ccccc3)c2C#N)C1,active: 20.6 µM,–
CCOC(=O)N1CCN(C(=O)c2ccc3c(=O)n(CCc4ccccc4)c(=O)[nH]c3c2)CC1,"inconclusive [inhibitor, single point]",–

SMILES,Potency,"activity change, negative = growth inhibition"
O=C(NCC(=O)N(Cc1ccco1)C(C(=O)NC1CCCCC1)c1ccncc1)c1cccs1 (centres undefined),–,inactive: 14%
COc1ccc(-c2ccc3oc(-c4ccsc4)cc(=O)c3c2)cn1,–,inactive: -25.7%
Nc1ccc(S(=O)(=O)NNC(=O)C(=O)NNc2ccccc2)cc1,–,inactive: -25.3%
CCCCCCCCC(NC(=O)c1ccc(C#N)cc1)C(=O)NCCC (centres undefined),"inconclusive [inhibitor, single point]",–
COc1ccc(-c2nnc(SCC(=O)N3CCN(c4ccccc4)CC3)o2)cc1OC,"inconclusive [inhibitor, single point]",–
NNc1nnc2c3cc(F)ccc3n(Cc3ccccc3)c2n1,"inconclusive [inhibitor, single point]",–
Cc1ccc(N(CC(=O)Nc2ccc(F)c(Cl)c2)S(=O)(=O)c2c(C)noc2C)cc1,"inconclusive [inhibitor, single point]",–
O=C(Cc1cccs1)N(c1ccc(F)cc1)C1(C(=O)NC2CCCCC2)CCCC1,"inconclusive [inhibitor, single point]",–
Cc1cc(C(=O)Nc2cccc(S(=O)(=O)N3CCOCC3)c2)c2ccccc2n1,"inconclusive [inhibitor, single point]",–
Cc1nn(CC(O)CN2c3ccccc3Sc3ccccc32)c(C)c1Br (centres undefined),"inconclusive [inhibitor, single point]",–
O=C(CN(Cc1ccco1)C(=O)c1cccc(Cl)c1)Nc1c(Cl)cc(Cl)cc1Cl,active: 25.9 µM,–
CCc1ccccc1NC(=O)Nc1ccc(F)cc1F,"inconclusive [inhibitor, single point]",–
O=C(c1nc2ccccn2c1CN1CCCC(c2nc3ccccc3o2)C1)N1CCCC1 (centres undefined),–,inactive: -3.79%
CS(=O)(=O)c1ncc(CO)n1Cc1ccccc1,–,inactive: 14.8%
CCOc1ccccc1CNC(=O)CN1C(=O)c2cccnc2Oc2ccc(Cl)cc21,"inconclusive [inhibitor, single point]",–
Cc1cc(-n2c(C)cc(C(=O)CSc3nnnn3-c3ccc(Cl)cc3)c2C)no1,"inconclusive [inhibitor, partial curve, poor fit]",–
CC1CCCN(S(=O)(=O)c2csc(C(N)=O)c2)C1 (centres undefined),–,inactive: -9.44%
CCC(=O)N1CCN(c2ccc(NC(=O)COc3ccccc3Cl)cc2)CC1,active: 16.4 µM,–
CCS(=O)(=O)N1CCC2(CC1)OC(=O)C(C)=C2C(=O)NCc1ccc(OC)c(OC)c1,–,inactive: -13.6%
CCNC(=S)Nc1ccc(Cl)c([N+](=O)[O-])c1,–,inactive: -16%
O=C(NN=Cc1ccc(Cl)cc1Cl)c1ccccc1,–,inactive: -24.5%
Cc1ccc(C(=O)c2cn(Cc3ccccc3)c3c(F)cc(F)cc3c2=O)cc1,"inconclusive [inhibitor, single point]",–
NC(=O)CC(NC(=O)Cc1cccc2ccccc12)c1ccc(NCCc2ccccc2F)c([N+](=O)[O-])c1 (centres undefined),active: 20.6 µM,–
Cc1ccc(Sc2cc(NCCCO)c([N+](=O)[O-])c3nonc23)cc1,active: 2.31 µM,–
COc1ccc(N2CCN(c3ncnc4c3nnn4Cc3ccccc3Cl)CC2)cc1,"inconclusive [inhibitor, partial curve]",–

SMILES,Potency,"activity change, negative = growth inhibition"
O=C(Nc1ccccc1)c1ccc(Cl)c(S(=O)(=O)Nc2ccccc2)c1,"inconclusive [inhibitor, single point]",–
CN1CCN(C(=O)c2ccc(S(=O)(=O)c3ccc(Br)cc3)cc2)CC1,"inconclusive [inhibitor, single point]",–
Cc1ccc(S(=O)(=O)N(C)CCCC(=O)N2CCCCC2)cc1,–,inactive: -8.91%
CCCCN(CC)CCCNC(=O)c1ccc2c(c1)N(CC)C(=O)c1ccccc1S2(=O)=O,–,inactive: -16.5%
CCOC(=O)C(=O)NNc1ccccc1C,–,inactive: 18.8%
Cc1cc(Nc2cccc(Cl)c2)nc2ccc(NC(=O)Cc3c(F)cccc3Cl)cc12,active: 13 µM,–
CC(=O)Nc1ccc2c(c1)c1ccccc1n2C(C)=O,"inconclusive [inhibitor, single point]",–
Cc1cccc(NS(=O)(=O)c2ccc(C)c(C(=O)OCC(=O)Nc3cc(C)on3)c2)c1,"inconclusive [inhibitor, single point]",–
COc1ccc(-n2c(C)cc(C(=O)COC(=O)c3ccc(O)cc3O)c2C)cc1,active: 8.2 µM,–
COc1ccc(-c2nn(C)c(=O)c3ccccc23)cc1CNC(=O)C1CCCCC1,"inconclusive [inhibitor, single point]",–
Cc1cccc(-n2ncc3c2CCCC3NC(=O)CC(F)(F)F)c1C (centres undefined),–,inconclusive: -36.9% [inhibitor]
C=C1CCC[C@]2(C)C[C@H]3OC(=O)C(CNC(CC)CO)[C@H]3CC12 (some centres undefined),"inconclusive [inhibitor, single point]",–
Cc1ccc(NC(=O)N2CCCC2C(=O)Nc2ccc(-n3cnnn3)c(C)c2)cc1 (centres undefined),"inconclusive [inhibitor, single point]",–
COc1ccc2[nH]cc(CCNc3nc(-c4ccccc4OC)nc4ccccc34)c2c1,"inconclusive [inhibitor, single point]",–
COc1ccc2nc(N(Cc3cccnc3)C(=O)c3ccc(Cl)cc3)sc2c1,–,inactive: -0.94%
O=C1C2C3CCCC3=C3CCCC3C2C(=O)N1c1cccc(Cl)c1 (centres undefined),–,inactive: -9.56%
CCC(=O)Nc1ccc(C(=O)CSc2nnc(CNc3ccc(Cl)cc3)o2)cc1OC,active: 20.6 µM,–
CC1CCN(C(=O)CSc2nnc(CSc3ncccn3)n2C)CC1,–,inactive: -23.6%
Cc1ccc(C2=NCCn3nc4cc([N+](=O)[O-])ccc4c32)cc1,"inconclusive [inhibitor, partial curve]",–
O=C(CC1C[C@H](C(=O)N2CCOCC2)[C@@]2(CCC3CCCC3)c3[nH]c4ccccc4c3CCN2C1=O)NCc1ccco1 (some centres undefined),active: 20.6 µM,–
Nc1cc2c(cc1N)-c1ccccc1C2,"inconclusive [inhibitor, single point]",–
COc1cc(CNC[C@H]2O[C@@H](n3ccc(N)nc3=O)[C@H](O)[C@@H]2O)ccc1OCc1cccc(Cl)c1,–,inactive: -0.573%
Cc1ccc(C(=O)NCC(=O)OCc2nnc(-c3ccc([N+](=O)[O-])cc3)o2)s1,"inconclusive [inhibitor, single point]",–
CNC(=O)CN(C)S(=O)(=O)c1ccc(OC)c(Cl)c1,"inconclusive [inhibitor, partial curve, poor fit]",–
